The labels stand for the following.
B1: OR4K15 (parent)
chain: GUUAACGGUCAUAGGCCAUGGAAACUAGGAGCACCAUUUCGCUGCCAGUGAAGAAAUGAACAAAGAAAAUCUGGGCCAGGCAGGCAUCAAAAGAAAUAGUCUUGCGCUCAACCAGAAAGUCUGUAAUCAUUUUAAGGGUA

The source gives no read counts; variants with many changes may rest on few reads.

Variants of B1 are the subject of this series. Briefly: self-cleavage, relative activity (ratio to wild type); higher = more cleavage; in vitro, sequencing; the parent is a self-cleaving ribozyme.
Consider A18G A64G A82G, for which the self-cleavage was 0.46.
To A18G U38C A54G A67G A82G U97C belongs 0.45; to A18G U102C U131C, 1.31.
Regarding G14A A47U U127A, the self-cleavage worked out at 0.33.
On to G14A A24G A30G A56G U131C, for which the self-cleavage came to 1.74.
To G14U U26C A36G A69G belongs 1.61; to A18U U124A A125G, 0.9.
Turning to C16U G79A A92G A116U A118U U124C U127C, the self-cleavage turned out to be 0.
In the case of A18G A33G A82G U122G, the self-cleavage was found to be 0.56.
Consider C17U A30G A51U A116G, for which the self-cleavage stood at 0.86.
As for A18U A52G A55G A92G A110G C128U, the self-cleavage worked out at 0.08.
Turning to G15A A60G C105A A114G, the self-cleavage worked out at 0.01.
Consider C17U A56G A60G A78U, for which the self-cleavage turned out to be 0.17.
Regarding A18G U39C C42U, the self-cleavage came to 1.59.
Turning to U19A A22C A89U, the self-cleavage came out at 0.85.
Regarding A18G A22U A66G A126G, the self-cleavage stood at 1.26.
Turning to G15U U87C U127C, the self-cleavage is 0.55.
Take A18U A24U A60G U102C A117G U139C: the self-cleavage stood at 2.05.
As to G15A A67G A118G, the self-cleavage is 1.34.
Regarding A18G A86U A118G, the self-cleavage worked out at 2.41.
For the variant G14A U97C A116U, the self-cleavage amounted to 0.03.
As to G14A A54G A67G A116G, the self-cleavage was 0.12.
Consider A18G A59G A111G U132C, for which the self-cleavage is 0.03.
For the variant A18G A27G A30G U49A, the self-cleavage worked out at 1.36.
In the case of A18G A63G A111U, the self-cleavage amounted to 0.17.
For the variant A18U A89G U100C A135U, the self-cleavage was 1.59.
As to A18U A69G U130C, the self-cleavage was 0.44.
To A18G A92G G93A belongs 0.91; to A18U A60G U131C, 1.18; to A18C A22G A33U, 1.28.
The value for A18U A62G U120G U124C was 0.98; that for A18C U87A U133C was 0.38.
The value for A18G A92G U132A A135G was 1.42.
On to A18U A52G A114G U131C, for which the self-cleavage amounted to 0.15.
For G15U G58U U124A, the self-cleavage stood at 0.56.
Regarding G14U A68U A118C, the self-cleavage was 0.32.
For A18U A66G A111G, the self-cleavage came out at 0.03.
Turning to A18G A33C A78U U97C U103C, the self-cleavage stood at 0.04.
Consider A18C A27U A47U U108C, for which the self-cleavage amounted to 0.04.
The value for A18C U57A A96G A116U was 0.16; that for A18G A51U A55G A78U was 0.24; that for A18G C34A A111U was 0.24.
In the case of A18G A78G A82U, the self-cleavage amounted to 0.19.
Consider A18G A36G A54G U57G A68U A89G, for which the self-cleavage came out at 0.5.
To A18U A33C U102A belongs 0.7; to A18U U19C A24G A52U, 1.96.
For A18G A90G G119U, the self-cleavage turned out to be 1.38.
On to A18G U70G A94G G138A, for which the self-cleavage was 1.07.
Regarding A18U U43C A59G U87C, the self-cleavage amounted to 0.68.
As to G15A A89U A95G, the self-cleavage was determined as 2.28.
Take A18G A51G U108C U122C: the self-cleavage was determined as 0.
With G14A A62G A114U A116G A118G, the self-cleavage came to 0.01.
In the case of A18G U38C U43C A98U A117G, the self-cleavage is 2.18.
For A18U A24G A90G, the self-cleavage is 1.38.
For the variant U19A A33G A55C A64G, the self-cleavage worked out at 0.71.
The value for A18G A51U U120A C128A A129U A140G was 0.29.
For A18G A27G A96U A118G, the self-cleavage worked out at 0.44.
To G14A U37C G44A belongs 0.83; to G15A U19C A90G U100C, 2.29; to A18U A30U U38C A78G U122C A129G U132C, 0.09.
For the variant A18G U38C U122C, the self-cleavage amounted to 1.19.
Take A18G A24G U87C U100C: the self-cleavage was 1.79.
To A18G A36G A55G A114G U130C belongs 0.27; to A18G A82G A89G, 0.46.
To C16U A24G A36G A89U belongs 0.92.
With A18G A64G G73A, the self-cleavage was 0.47.
Turning to A18G A67G A126G U130C, the self-cleavage amounted to 0.53.
To A18G A66U C107A belongs 0.01.
Take A18U A63G U122A: the self-cleavage came to 1.02.
With A18G U108C U131C, the self-cleavage worked out at 0.01.
Regarding A18G A60G A78U U132C, the self-cleavage turned out to be 0.16.
In the case of U19A A36G A52G, the self-cleavage is 0.29.
The value for A18G U102C A114U was 0.18; that for A18U A78G A96G was 0.26; that for A13U U43C A96G U124A was 0.62.
For the variant A18G A64G U100C U132A, the self-cleavage came to 1.92.
To G15A A47G A62G A118G U131C belongs 0.08; to A18G A55G A91G U102C A125U, 1.67.
Take G15A U57C U127G U131G: the self-cleavage worked out at 0.94.
As to A18G U43A U127A, the self-cleavage was found to be 1.51.
Turning to A18G A23G U49G A68G A86G, the self-cleavage stood at 0.56.
Take A18G A69G U103C: the self-cleavage was determined as 1.47.
For A18G A52G U108C, the self-cleavage worked out at 0.05.
The value for A18U A24G U87C C109U was 0.54; that for G14A A68G U108C was 0.01.
Consider A18G U70C C109A A111G, for which the self-cleavage came to 0.04.
G15A A68G G79A A86G: the self-cleavage is 0.06.
For G14A A33G U131C, the self-cleavage was 0.27.
For A18U U19C U57C A67G A114G, the self-cleavage came to 0.3.
In the case of A18G G74A U132C, the self-cleavage is 0.23.
For A18U U49C U120A, the self-cleavage was 1.33.
Turning to A18G U132C A134G, the self-cleavage is 1.32.
As for A18G A33G U108C, the self-cleavage was found to be 0.02.
Take A18U A47C U127C: the self-cleavage came to 1.13.
The value for G14U A18U A96G was 1.6; that for A13U U39C A82G was 0.13; that for A18G A68G U132C was 1.46.
With A18U U43C A51U G65U A114G, the self-cleavage was 0.19.
Turning to A18C A56G A94U, the self-cleavage is 1.73.
To G14U U19C A22U C61U A78G A116G belongs 0.05.
On to A18G A22U C35U U43A, for which the self-cleavage was determined as 1.13.
Consider A18C A67G A86G A117U G137A, for which the self-cleavage is 1.
Turning to U19A A22G A24G A86G A116G A129G, the self-cleavage was 0.13.
As to A18G U57C A90G, the self-cleavage stood at 0.48.
Turning to G15C A30G U39A A47U A118G U132A, the self-cleavage is 0.63.
To A18C A55G A92G A126U A134G belongs 0.67; to A18G A23G A68G U87C U133C, 1.08.
In the case of A18G A60U A62G A118C U127A, the self-cleavage was 1.59.
For G14A U87C A94G U130C, the self-cleavage is 0.72.
Turning to A18G U26C A111G A117G A118G, the self-cleavage amounted to 0.
Regarding C17U U37C U38C, the self-cleavage turned out to be 1.18.
A18C A52G A55G A67G A129C U139C: the self-cleavage came to 0.45.
C17G G44U A62C G74A: the self-cleavage was 0.16.
In the case of A18G U19C U37C A62G A69G A91U, the self-cleavage was 0.71.
Take G14A A89G A96G G137A: the self-cleavage was found to be 0.5.
Regarding C16U U102C A111G, the self-cleavage was determined as 0.01.
Consider A18G A23G A59G A95G, for which the self-cleavage is 1.49.
For the variant A18U A111G A140G, the self-cleavage is 0.02.
A18G U49A A54G A60G A67G U70C C85U U103A U139G: the self-cleavage stood at 0.06.
Consider A18U A47U U87A, for which the self-cleavage stood at 0.37.
As to A18G A23G G53A A135G, the self-cleavage was determined as 0.75.
For the variant A18U A89G A92U U131C, the self-cleavage came out at 1.31.
Regarding A18C U38C A52G A89U A110C U122A, the self-cleavage came out at 0.16.
Regarding A18G U19C A118C G136U, the self-cleavage turned out to be 0.85.
Take A18G A30G U108C A140G: the self-cleavage was found to be 0.04.
Regarding G14A C40U U72C U87C, the self-cleavage is 0.02.
A18G U37G G44A U49C U100C: the self-cleavage is 0.78.
The value for A18U A22G U37C A52G U122A was 0.75.
On to A18G A23G A126U, for which the self-cleavage is 1.23.
With A18G A23G A110G, the self-cleavage came out at 0.2.
In the case of A18G A27G U49C U97G, the self-cleavage was 1.22.
To A13U U124C G138U belongs 1.04; to C16G U19A U39C A92G, 1.6; to C16G U39A A64G U102A A116G U131A, 0.03.
In the case of U19A A24G A30U, the self-cleavage was determined as 0.91.
Regarding A18G U49C A52G A55G, the self-cleavage came out at 0.66.
For the variant A18U U19C A33G, the self-cleavage came to 1.02.
The value for A18U C32U U43G A89G was 2.95; that for A18G A64G U97C U122C A126G was 2.06.
To A18G A82G A91U A116G belongs 0.22; to C16A A55U A63G A68G U108C G137A, 0.01.
Regarding G15A U38G C45U A126G, the self-cleavage was found to be 0.79.
Regarding C16U U57A U102A A111U, the self-cleavage was 0.02.
For A13U U72C U122C, the self-cleavage worked out at 0.26.
To C16A U57C U122C belongs 0.94; to A18G U49C A64G A129U, 0.56.
Turning to A18U A59G U70C G115U A117G, the self-cleavage was found to be 0.01.
As to G14A A90G A118G, the self-cleavage was determined as 0.77.
Take A18G A92G U102C A117G: the self-cleavage is 1.58.
Consider A18G A95G A110G, for which the self-cleavage stood at 0.12.
Take A13U U49G A68G U122G A126G: the self-cleavage came out at 1.08.
To A18U U43G A47G A92G belongs 0.92; to A18G A52G U102C, 0.63.
For A18U A33G G48A A62G A94G A129G, the self-cleavage worked out at 0.17.
A18U A56G A60G C109A: the self-cleavage is 0.13.
Take G14A A59G A62G A92G A134G: the self-cleavage amounted to 0.96.
Consider A18G A54G A111G A114U, for which the self-cleavage worked out at 0.02.
A18G U37C U57C U132C: the self-cleavage was 0.47.
The value for A18G A30U U38C U43C was 1.31; that for U19A A51G U57C A118G was 0.84.
Take A18U A33G A92G U97C U102C A140G: the self-cleavage stood at 1.58.
In the case of A18U U26A A63G A134G, the self-cleavage was 0.25.
Turning to A18G A62G G80A A89U U127C A129G, the self-cleavage was found to be 0.12.
Regarding A18U A63G A140U, the self-cleavage was found to be 0.82.
As to C17U G44A A86G U130C, the self-cleavage is 1.1.
G14A A22G A30G A66G A110G: the self-cleavage is 0.12.
As to A18U A23G C71A U87A A98U U124C, the self-cleavage amounted to 0.57.

These data come from the RNAGym collection of RNA variant scans (doi:10.7554/elife.90254).
